{"source": "paper PMC12040169", "about": "(PLOS Biology, 2025)", "note": "The other results are listed elsewhere or left out."}
{"test_system": "T1, C. trachomatis L2/434/Bu expressing GFP (CTL2-GFP)", "T1 construct": "L2/434/Bu GFP intracellular growth in HeLa cells", "parameters": "species or system HeLa; C. trachomatis total inclusion area by high-content imaging, normalised to DMSO", "conditions": "total inclusion area; 28.5 h, 10 µM; inhibitor", "summary_of_the_method": "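After bulk GFP and resorufin fluorescence reads, cells were fixed, stained with Hoechst and imaged by high-content microscopy. Inclusion area and number (GFP) stood in for chlamydial growth, nuclei count (Hoechst) for host cell viability. MICs were derived as for the bulk readout.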"}
{"smiles": "Nc1nc(N)c([C@H]2C[C@@H](O)[C@@H](CO)O2)nc1Cl", "note": "[CBK201326]", "% of control remaining": 109.525}
{"smiles": "CCN(CC)C(=O)c1ccc(NC(=O)CSc2n[nH]c(=O)n2CC2CCCO2)cc1", "note": "(stereo not shown) [CBK295186]", "% of control remaining": 82.8454}
{"smiles": "CN1CCN(c2cc(NCC(c3cccnc3)N(C)C)nc3ccnn23)CC1", "note": "(stereo not shown) [CBK037157]", "% of control remaining": 81.6472}
{"smiles": "Cc1nn(C)c(Cl)c1CN1CCCC(CCC(=O)N2CCN(C)CC2)C1", "note": "(stereo not shown) [CBK307716]", "% of control remaining": 41.3258}
{"smiles": "O=C(O)CCCC(=O)NNC(=O)c1cccc(Br)c1", "note": "[CBK263530]", "% of control remaining": 109.782}
{"smiles": "Cc1nc(CN2C(=O)CC3(C2=O)C(=O)N(CCCCOc2ccccc2)c2ccccc23)cs1", "note": "(stereo not shown) [CBK076103]", "% of control remaining": 115.789}
{"smiles": "O=C(c1ccco1)N1CCN(c2cncc(-c3cc4ccccc4o3)n2)CC1", "note": "[CBK066044]", "% of control remaining": 85.9859}
{"smiles": "CCOc1cc(/C=C/c2ccc3cccc(O)c3n2)cc(Br)c1O", "note": "[CBK264451]", "% of control remaining": 108.362}
{"smiles": "c1ccc(Oc2cccc(CN3CCN(c4ccccn4)CC3)c2)cc1", "note": "[CBK261523]", "% of control remaining": 97.8262}
{"smiles": "CN1CCCc2ccc(S(=O)(=O)NCCc3cn4ccccc4n3)cc21", "note": "[CBK306170]", "% of control remaining": 64.8009}
{"smiles": "Cc1cc(C)nc(SCC(=O)N/N=C2/C(=O)Nc3ccccc32)n1", "note": "[CBK262883]", "% of control remaining": 80.2526}
{"smiles": "N#Cc1c(C(F)(F)F)cc(-c2ccncc2)nc1SCCN1CCCCCC1", "note": "[CBK267451]", "% of control remaining": 101.326}
{"smiles": "Cc1cc(C(=O)Cn2nc(C(=O)O)c3ccccc3c2=O)c(C)n1Cc1ccccc1Cl", "note": "[CBK297504]", "% of control remaining": 69.805}
{"smiles": "N#Cc1ccc(-c2cnc(NC(=O)C(F)(F)F)c(-c3ccc(C(=O)N4CCOCC4)cc3)n2)cc1", "note": "[CBK093819]", "% of control remaining": 101.239}
{"smiles": "COc1cc(CNc2nc(Br)cn3ccnc23)cc(OC)c1OC", "note": "[CBK038060]", "% of control remaining": 101.937}
{"smiles": "Cc1ccc(OC2(C(=O)N3CCCC3c3nccs3)CCNCC2)cc1", "note": "(stereo not shown) [CBK307539]", "% of control remaining": 61.4479}
{"smiles": "Cc1cc(C)c2c(CC(=O)NNC(=O)COc3ccccc3)coc2c1", "note": "[CBK269169]", "% of control remaining": 121.495}
{"smiles": "CN(C)CCNCc1ccc(-c2cccc(C(=O)O)c2)o1", "note": "[CBK287250]", "% of control remaining": 105.552}
{"smiles": "CC(C)n1ncc2c1NC(=O)CC2c1ccc2c(c1)n(C)c(=O)n2C", "note": "(stereo not shown) [CBK287926]", "% of control remaining": 41.5637}
{"smiles": "CN1CCCc2ccc(S(=O)(=O)Nc3nc4ncccn4n3)cc21", "note": "[CBK305226]", "% of control remaining": 103.294}
{"smiles": "O=C(Nc1ccc(OC(F)(F)F)cc1)c1nn(-c2ncccn2)c2ccccc12", "note": "[CBK048510]", "% of control remaining": 122.257}
{"smiles": "N[C@H]1CO[C@H]2[C@@H]1OC[C@@H]2n1cc(-c2ccccc2)nn1", "note": "[CBK289502]", "% of control remaining": 112.816}
{"smiles": "CC(C)N1CCCC[C@H]2CN(C(=O)C3OCCc4ccccc43)C[C@H]21", "note": "(stereo partly shown) [CBK285511]", "% of control remaining": 91.4655}
{"smiles": "CCCS(=O)(=O)N1CCC2(CCCN(Cc3cccc(F)c3F)C2=O)C1", "note": "(stereo not shown) [CBK306694]", "% of control remaining": 56.5821}
{"smiles": "O=C(Cc1c[nH]c2ccccc12)N1CCC2(CCCN(Cc3cc(=O)[nH]c(=O)[nH]3)C2)C1", "note": "(stereo not shown) [CBK132049]", "% of control remaining": 77.2689}
{"smiles": "Cc1n[nH]c(O)c1C(c1ccc(OC(=O)c2c(F)cccc2F)cc1)c1c(C)n[nH]c1O", "note": "[CBK265136]", "% of control remaining": 131.121}
{"smiles": "COc1ccccc1-c1cc(C(=O)NCCCN2CCOCC2)c2ccccc2n1", "note": "[CBK267780]", "% of control remaining": 101.317}
{"smiles": "Cc1ccc(Nc2cncc(-c3ccc(O)cc3)n2)cc1Cl", "note": "[CBK107802]", "% of control remaining": 74.9792}
{"smiles": "O=C(Oc1cccc2cnccc12)c1ccccc1", "note": "[CBK022889C]", "% of control remaining": 38.1732}
{"smiles": "CC(=O)N1CCc2c([nH]c3ccc(Br)cc23)C12CCN(CCCC#N)CC2", "note": "[CBK039724]", "% of control remaining": 59.851}
{"smiles": "OCCN(Cc1cccnc1)Cc1cccn1-c1ccccc1F", "note": "[CBK283019]", "% of control remaining": 91.6503}
{"smiles": "O=C(Nc1cccc(C(F)(F)F)c1)c1cnsn1", "note": "[CBK018923]", "% of control remaining": 70.8133}
{"smiles": "COc1ccc(F)c(C2NC(=O)CCC2N)c1", "note": "(stereo not shown) [CBK282905]", "% of control remaining": 85.5794}
{"smiles": "COc1ccc(OCCn2c(C(C)O)nc3ccccc32)cc1", "note": "(stereo not shown) [CBK269905]", "% of control remaining": 86.1385}
{"smiles": "COc1ccc(-c2cc(C(=O)NCc3cccnc3)c3cc(Br)ccc3n2)cc1", "note": "[CBK293958]", "% of control remaining": 106.293}
{"smiles": "Cc1cc(C)n(C)c(=O)c1C(=O)NCCCc1ccc(Cl)cc1", "note": "[CBK281566]", "% of control remaining": 121.253}
{"smiles": "Cc1ncc(C(=O)NC2(c3ccccc3F)CCCC2)c(C)n1", "note": "[CBK283274]", "% of control remaining": 101.167}
{"smiles": "Cc1cc(C(=O)CSc2nnc(N3CCCC3)n2C2CC2)c(C)n1C", "note": "[CBK306051]", "% of control remaining": 86.5467}
{"smiles": "CS(=O)(=O)c1ccc(-c2ccc(N)c3ccccc23)cc1", "note": "[CBK084326]", "% of control remaining": 83.4777}
{"smiles": "O=C(Nc1ccc(-c2ccc(NC(=O)c3ccncc3)cc2)cc1)c1ccncc1", "note": "[CBK262321]", "% of control remaining": 92.6875}
